# Test results taken from publication PMC4336329 (PLoS ONE, 2015).
# Among all 310,000 compounds or so, about 2,200 (0.71%) showed an effect of 50% or more. The effect is printed as a negative number. This is one part of the list.
# Molecular target: human ether-à-go-go-related gene (hERG) potassium channel (human, UniProt Q12809)
# Test: primary screen, population patch clamp on CHO cells stably expressing hERG
# Chain of human ether-à-go-go-related gene (hERG) potassium channel (Q12809 whole entry, looked up): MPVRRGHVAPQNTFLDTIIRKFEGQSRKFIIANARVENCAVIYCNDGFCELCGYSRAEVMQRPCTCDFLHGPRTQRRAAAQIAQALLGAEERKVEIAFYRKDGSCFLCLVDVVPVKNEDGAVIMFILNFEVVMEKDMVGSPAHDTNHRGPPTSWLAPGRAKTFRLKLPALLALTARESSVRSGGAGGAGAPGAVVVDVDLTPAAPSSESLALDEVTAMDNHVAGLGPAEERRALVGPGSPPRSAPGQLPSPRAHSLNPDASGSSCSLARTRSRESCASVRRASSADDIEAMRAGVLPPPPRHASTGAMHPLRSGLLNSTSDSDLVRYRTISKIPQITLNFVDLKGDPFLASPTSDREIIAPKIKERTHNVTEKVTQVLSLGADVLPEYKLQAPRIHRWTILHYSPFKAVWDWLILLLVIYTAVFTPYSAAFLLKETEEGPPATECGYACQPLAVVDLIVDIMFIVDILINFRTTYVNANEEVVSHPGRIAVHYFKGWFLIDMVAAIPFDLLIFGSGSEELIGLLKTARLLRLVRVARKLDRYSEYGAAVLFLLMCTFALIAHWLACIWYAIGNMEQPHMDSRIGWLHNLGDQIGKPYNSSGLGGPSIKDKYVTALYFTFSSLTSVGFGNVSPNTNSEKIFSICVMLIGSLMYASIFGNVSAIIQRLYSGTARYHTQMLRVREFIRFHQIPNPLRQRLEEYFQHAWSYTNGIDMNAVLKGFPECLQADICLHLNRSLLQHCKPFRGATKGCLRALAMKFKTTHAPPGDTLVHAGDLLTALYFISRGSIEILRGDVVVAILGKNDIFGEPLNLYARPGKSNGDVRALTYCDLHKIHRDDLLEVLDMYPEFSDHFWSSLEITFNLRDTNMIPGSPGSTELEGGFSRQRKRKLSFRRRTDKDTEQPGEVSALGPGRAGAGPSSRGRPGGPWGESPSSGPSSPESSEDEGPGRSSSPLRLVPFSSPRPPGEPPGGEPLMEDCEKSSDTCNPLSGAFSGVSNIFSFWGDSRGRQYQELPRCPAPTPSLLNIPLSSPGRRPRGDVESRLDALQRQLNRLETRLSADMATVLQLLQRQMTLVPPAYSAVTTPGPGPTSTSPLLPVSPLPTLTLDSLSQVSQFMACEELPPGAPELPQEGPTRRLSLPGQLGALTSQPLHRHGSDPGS
row,Compound,"hERG current change (%, negative = inhibition) at 1uM [%]"
1,COc1ccc(NC(=S)N2CCC(C(=O)c3ccc(C)cc3)CC2)c(OC)c1,31.5
2,CC(C)(C)c1ccc(/C=N/OCC(=O)NCc2ccc(F)cc2)cc1,11.5
3,COc1ccc(CN2CCNC(=O)C2CC(=O)NC2CCCCCC2)c(C)c1C (stereo not drawn),6.97
4,COCCOC(=O)C1=C(C)N(Cc2ccccc2)C(=O)NC1c1ccc(OC)cc1 (stereo not drawn),-1.91
5,COc1ccc(Cc2nc3ccc(C(=O)NCC4COCCO4)cc3o2)cc1OC (stereo not drawn),14.3
6,CC(C)=C1C2CCC1C1C(=O)N(c3ccc4c(c3)OCO4)C(=O)C21 (stereo not drawn),12.5
7,CCN(CC(=O)Nc1c(F)cccc1F)C(=O)c1ccc2c(c1)OCO2,10.2
8,Clc1cccc(N/N=C/c2ccncc2)c1,3.11
9,COc1cccc(CN2CCN(C(=O)CC(C)C)CC2)c1,-2.83
10,Cl.OCCNc1nc(N2CCN(c3ccccc3)CC2)nc2ccccc12,-49.3
11,CCn1c(CC(=O)Nc2ccccc2F)nnc1SCC(=O)N1CCOCC1,7.18
12,N#CCCn1cc(CNC2CCC(O)CC2)c2ccccc21 (stereo not drawn),15
13,COc1cc2c(cc1NC(=O)c1cccnc1)CCCC2,15.6
14,Cc1cc(Nc2c(C#N)c(N)nn2C)ccc1F,7.95
15,COc1ccc(-n2c(SCC(=O)C(C)(C)C)nc3ccsc3c2=O)cc1,10.2
16,O=C(/C=C/c1ccc(Cl)c([N+](=O)[O-])c1)Nc1cccnc1,4.94
17,COC(=O)c1sccc1NC(=O)c1ccccc1Br,9.34
18,Cc1ccc(-c2[nH]ncc2C(=O)c2ccc(Br)cc2)c(O)c1,5.02
19,BrCC(Br)C1CCC(Br)C(Br)C1 (stereo not drawn),20
20,Cc1ccc(CNC(=O)C2CCCCC2C(=O)O)cc1 (stereo not drawn),6.64

row,Compound,"hERG current change (%, negative = inhibition) at 1uM [%]"
1,O=C(Nc1ccc(S(=O)(=O)N2CCCC2)cc1)c1ccc(Br)o1,13.7
2,COc1ccc(CC(=O)Nc2ccc(S(=O)(=O)N3CCOCC3)cc2)cc1,-14.7
3,CCCCC(=O)N(Cc1nc2sc(C)c(C)c2c(=O)[nH]1)C1CCCC1,11.5
4,CNCC(=O)N1CCN(c2ncc(C(F)(F)F)cc2Cl)CC1.Cl,2.03
5,O=C(O)C1C2C=CC(C2)C1C(=O)N1CCc2ccccc21 (stereo not drawn),15.8
6,CN1CCN(c2nc(-c3ccc(Br)cc3)nnc2-c2ccccc2)CC1,3.78
7,COc1ccc(/C=C2/N=C3CCCCCN3C2=O)cc1OC,12.5
8,CCc1ccc(OC(C)C(=O)Nc2ccc(S(=O)(=O)Nc3nccs3)cc2)cc1 (stereo not drawn),14.5
9,COc1ccc(/C(N)=N/OC(=O)C2CCCCC2)cc1,12.9
10,CCCNS(=O)(=O)c1ccc(CCC(=O)N2CCCC2)cc1,9.71
11,CCOc1ccc(NC(=O)c2cc(S(=O)(=O)N3CCCCC3)c[nH]2)cc1,11.3
12,COc1ccc(OC)c(NC(=O)CCN2CCN(c3ccccc3)CC2)c1,3.51
13,CSc1ccc(/C=N/N2CCN(Cc3ccc(C)cc3C)CC2)cc1,13.6
14,O=c1[nH]c(=S)[nH]nc1Cc1ccccc1,13.3
15,Cc1ccccc1N(CC(=O)NC1CCCC1)C(=O)c1oc(C(C)(C)C)cc1C,10.5
16,O=C(Nc1ncn[nH]1)c1cc([N+](=O)[O-])ccc1Cl,14.2
17,COC(=O)c1sccc1NC(=O)c1c(-c2ccccc2)noc1C,7.31
18,COc1cc(SC)ccc1C(=O)NCCc1c[nH]c2ccccc12,2.18
19,C=CCn1c(SCC(=O)Nc2ccc(OC)cc2)nc2c([nH]c3ccccc32)c1=O,13.8
20,Cc1cccc2c1-c1sc(C(=O)N3CCc4ccccc4C3)cc1CO2,12.9

row,Compound,"hERG current change (%, negative = inhibition) at 1uM [%]"
1,CC1=C(C(=O)OC(C)C)C(c2c[nH]c3ccccc23)n2ncnc2N1 (stereo not drawn),9.73
2,CC(Oc1ccc(Cl)cc1Cl)c1nc(-c2ccc(NC(=O)c3ccco3)cc2)no1 (stereo not drawn),16.6
3,O=C(NCC1CCCO1)C1CC(=O)N(C2CCCC2)C1 (stereo not drawn),7.98
4,CC(=O)NC1CC2CCC(C1)N2 (stereo not drawn),5.32
5,O=C(c1ccccc1SCc1ccccc1)N1CCOCC1,-1.14
6,COc1ccc(C(CC(=O)c2ccc(C)cc2)C(C#N)C#N)cc1OC (stereo not drawn),8.98
7,NNc1ncnc2sc3c(c12)CCC3,14.4
8,CCCCNC(=O)c1onc(CSc2cccc(OCC)c2)c1C(=O)O,13.6
9,Cc1ccc(-c2n[nH]c(=S)n2/N=C/C=C\c2ccccc2[N+](=O)[O-])cc1,12.8
10,CCS(=O)(=O)CCSc1nc2ccccc2o1,9.72
11,C=CCOC(=O)CC(NC(=O)c1ccccc1)c1ccccc1 (stereo not drawn),-11.2
12,CCOc1ccccc1NC(=O)CCCN1C(=S)NC(C)(C)CC1C (stereo not drawn),7.34
13,COc1ccccc1NC(=O)C(C)n1cnc2c(oc3nc4c(cc32)CCCC4)c1=O (stereo not drawn),-5.93
14,CCn1cc(C(=O)Nc2ccc(C)cc2C)c(=O)c2ccc(C)nc21,16.9
15,CCOC(=O)c1c(-c2cccs2)csc1NC(=O)CC(C)C,16.6
16,CSc1ncccc1C(=O)Nc1ccc(S(=O)(=O)NC2=NCCCCC2)cc1,9.9
17,COc1cc(C(=O)Nc2ccc(C(=O)c3cccs3)cc2)cc(OC)c1OC,6.99
18,NS(=O)(=O)c1ccc(NC(=S)N2CCN(c3ccccc3)CC2)cc1,14.7
19,N#Cc1c(N2C(=O)Nc3ccccc3N2O)sc2c1CCCC2,16.5
20,COCCCNC(=S)NNC(=O)c1ccoc1C,12.6
